T1: human ALPI (intestinal alkaline phosphatase) expressed on the surface of CHO cells (human, UniProt P09923 20-503)
T1 sequence (looked up): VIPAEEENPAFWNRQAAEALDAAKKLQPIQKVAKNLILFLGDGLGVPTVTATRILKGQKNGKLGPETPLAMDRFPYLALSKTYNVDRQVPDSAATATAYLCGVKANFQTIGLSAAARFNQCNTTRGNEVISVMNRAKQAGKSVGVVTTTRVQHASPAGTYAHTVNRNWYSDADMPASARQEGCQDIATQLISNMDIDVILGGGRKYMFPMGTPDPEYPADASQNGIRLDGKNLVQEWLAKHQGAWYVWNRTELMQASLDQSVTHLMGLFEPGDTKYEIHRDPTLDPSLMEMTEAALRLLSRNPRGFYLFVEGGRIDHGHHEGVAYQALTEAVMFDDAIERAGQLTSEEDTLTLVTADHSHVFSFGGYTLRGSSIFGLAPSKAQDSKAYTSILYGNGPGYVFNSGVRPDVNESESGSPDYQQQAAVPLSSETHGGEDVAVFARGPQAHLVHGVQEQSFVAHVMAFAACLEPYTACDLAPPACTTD

T2: human ALPL (tissue non-specific alkaline phosphatase) expressed on the surface of CHO cells (human, UniProt P05186 18-501)
T2 sequence (looked up): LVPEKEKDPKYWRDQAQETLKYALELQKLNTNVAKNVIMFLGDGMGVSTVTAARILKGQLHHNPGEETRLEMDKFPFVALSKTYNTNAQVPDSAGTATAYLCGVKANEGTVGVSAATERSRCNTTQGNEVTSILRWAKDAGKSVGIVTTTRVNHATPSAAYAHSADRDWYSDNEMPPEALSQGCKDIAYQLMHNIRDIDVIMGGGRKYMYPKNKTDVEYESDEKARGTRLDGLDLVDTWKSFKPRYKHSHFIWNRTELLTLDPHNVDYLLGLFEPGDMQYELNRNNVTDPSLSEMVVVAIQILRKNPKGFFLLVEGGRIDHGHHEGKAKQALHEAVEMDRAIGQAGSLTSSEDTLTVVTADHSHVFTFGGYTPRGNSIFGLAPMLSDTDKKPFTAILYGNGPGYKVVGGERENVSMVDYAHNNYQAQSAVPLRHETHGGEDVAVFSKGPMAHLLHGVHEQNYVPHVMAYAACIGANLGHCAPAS


What was measured:
Experiment in all cases: cell-based or functional assay
[1] = biological target: human ALPP (alkaline phosphatase, placental type) expressed on the surface of CHO cells (human, UniProt P05187 23-506)
Sequence of UniProt P05187 (P05187 23-506 limits assumed): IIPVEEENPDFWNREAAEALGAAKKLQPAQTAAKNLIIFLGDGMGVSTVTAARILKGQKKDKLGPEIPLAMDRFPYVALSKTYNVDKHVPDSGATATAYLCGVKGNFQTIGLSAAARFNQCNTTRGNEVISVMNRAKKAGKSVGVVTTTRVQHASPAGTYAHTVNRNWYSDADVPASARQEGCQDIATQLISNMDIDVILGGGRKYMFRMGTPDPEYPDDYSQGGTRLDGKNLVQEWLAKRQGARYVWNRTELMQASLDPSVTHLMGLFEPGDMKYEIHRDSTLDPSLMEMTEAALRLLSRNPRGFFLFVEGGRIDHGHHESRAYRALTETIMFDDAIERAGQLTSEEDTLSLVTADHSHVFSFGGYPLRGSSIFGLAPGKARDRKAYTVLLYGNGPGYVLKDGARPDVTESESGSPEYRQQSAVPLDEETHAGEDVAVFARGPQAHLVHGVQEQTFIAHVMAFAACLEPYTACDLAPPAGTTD

[2] = biological target: human ALPPL2 (alkaline phosphatase, germ cell type) expressed on the surface of CHO cells (human, UniProt P10696 20-503)
Sequence of UniProt P10696 (P10696 20-503): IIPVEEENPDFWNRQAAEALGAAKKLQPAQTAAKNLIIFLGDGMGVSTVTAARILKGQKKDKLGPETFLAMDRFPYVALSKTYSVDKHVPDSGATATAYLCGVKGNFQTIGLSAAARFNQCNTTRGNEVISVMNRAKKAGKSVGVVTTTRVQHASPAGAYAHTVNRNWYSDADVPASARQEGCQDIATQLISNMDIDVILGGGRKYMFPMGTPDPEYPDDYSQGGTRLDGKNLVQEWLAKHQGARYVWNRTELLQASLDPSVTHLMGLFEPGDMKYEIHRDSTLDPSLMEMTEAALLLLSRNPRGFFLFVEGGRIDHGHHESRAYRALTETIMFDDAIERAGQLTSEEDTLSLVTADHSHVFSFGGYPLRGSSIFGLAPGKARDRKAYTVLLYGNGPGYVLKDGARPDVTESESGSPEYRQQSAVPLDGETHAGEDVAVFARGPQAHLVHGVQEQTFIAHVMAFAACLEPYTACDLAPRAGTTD

[3] = biological target: T1, human ALPI (intestinal alkaline …)
[4] = biological target: T2, human ALPL (tissue non-specific …)

Row | Binder | IC50 at 96 h, cell-killing of CHO-ALPP cells [1] [nM] | IC50 at 96 h, cell-killing of CHO-ALPPL2 cells [2] [nM] | IC50 at 96 h, cell-killing of CHO-ALPI cells [3] [nM] | IC50 at 96 h, cell-killing of CHO-ALPL cells [4] [nM]
1 | D10 E10-hFc (S239C T366Y/Y407T), [G4S]3 linker, MA-PEG4-vc-PAB-EDA-PNU159682 conjugate, #880 (Fc fusion, DAR 2.02, MA-PEG4-vc-PAB-EDA-PNU159682 on Cys of S239C (EU numbering)) chain 1: QVQLVESGGGLVQPGGSLRLSCAASGSIFSVNTMGWYRQAPGKQRDLVAVATSGGTIHYADSVKGRFTISRDNAKNTVYLQMNSLKPEDTAVYYCNLVVPYGMIAGDHDYWGQGTKVTVSSGGGGSGGGGSGGGGS[human IgG1 Fc with C220S S239C T366Y (EU numbers) not spelt out] chain 2: QVQLVESGGGLVQAGGSLRLSCAVSGRALSDYNIGWFRQAPGKEREFVARKTWDGSSTRYDDSVKGRFTVSIEDAKNTAYLQMSSLKTEDTAVYYCAAGRYSRARGWEYDYWGQGTQVTVSSGGGGSGGGGSGGGGS[human IgG1 Fc with C220S S239C Y407T (EU numbers) not spelt out] | 3.2 | 2.9 | 549 | 774
2 | D10 E06-hFc (S239C T366Y/Y407T), [G4S]3 linker, MA-PEG4-vc-PAB-EDA-PNU159682 conjugate, #881 (Fc fusion, DAR 2.02, MA-PEG4-vc-PAB-EDA-PNU159682 on Cys of S239C (EU numbering)) chain 1: QVQLVESGGGLVQPGGSLRLSCAASGSIFSVNTMGWYRQAPGKQRDLVAVATSGGTIHYADSVKGRFTISRDNAKNTVYLQMNSLKPEDTAVYYCNLVVPYGMIAGDHDYWGQGTKVTVSSGGGGSGGGGSGGGGS[human IgG1 Fc with C220S S239C T366Y (EU numbers) not spelt out] chain 2: QVHLVESGGGLVQAGGSLRLSCAASRRSFSEYAMGWFRQAPGKEREFVAAIGWSGVIEYADSVKGRFTISRDNAKDTVYLQMNSLKPEDTAVYYCAAGLGIRVVSQTPAYWGQGTQVTVSSGGGGSGGGGSGGGGS[human IgG1 Fc with C220S S239C Y407T (EU numbers) not spelt out] | 5.9 | 4.6 | 600 | 867
3 | D10 F05-hFc (S239C T366Y/Y407T), [G4S]3 linker, MA-PEG4-vc-PAB-EDA-PNU159682 conjugate, #882 (Fc fusion, DAR 1.94, MA-PEG4-vc-PAB-EDA-PNU159682 on Cys of S239C (EU numbering)) chain 1: QVQLVESGGGLVQPGGSLRLSCAASGSIFSVNTMGWYRQAPGKQRDLVAVATSGGTIHYADSVKGRFTISRDNAKNTVYLQMNSLKPEDTAVYYCNLVVPYGMIAGDHDYWGQGTKVTVSSGGGGSGGGGSGGGGS[human IgG1 Fc with C220S S239C T366Y (EU numbers) not spelt out] chain 2: QVQLVESGGGLVQAGGSLRLSCAASGRAFGDYNIGWFRQAPGKEREFVARRTWDGSSTRYDDSVKGRFTVSIDNAKNTAYLQMNSLKTEDTAVYYCAAGRYSRVRGWEYDYWGQGTQVTVSSGGGGSGGGGSGGGGS[human IgG1 Fc with C220S S239C Y407T (EU numbers) not spelt out] | 3.6 | 3.5 | 586 | 880
4 | A06 F05-hFc (S239C T366Y/Y407T), [G4S]3 linker, MA-PEG4-vc-PAB-EDA-PNU159682 conjugate, #883 (Fc fusion, DAR 2.03, MA-PEG4-vc-PAB-EDA-PNU159682 on Cys of S239C (EU numbering)) chain 1: QVHLVESGGGLVQAGGSLRLSCAASGRTFLSMGWFRQAPGKEREFVAAISWTGGSTGYADSVKGRFTISRESDKETMYLQMNSLKPEDTAVYYCAARGDVYYGGDDATRYKYWGQGTQVTVSSGGGGSGGGGSGGGGS[human IgG1 Fc with C220S S239C T366Y (EU numbers) not spelt out] chain 2: QVQLVESGGGLVQAGGSLRLSCAASGRAFGDYNIGWFRQAPGKEREFVARRTWDGSSTRYDDSVKGRFTVSIDNAKNTAYLQMNSLKTEDTAVYYCAAGRYSRVRGWEYDYWGQGTQVTVSSGGGGSGGGGSGGGGS[human IgG1 Fc with C220S S239C Y407T (EU numbers) not spelt out] | 5.7 | 2.2 | 513 | 858

— patent US20260216242A1 (ALMAC DISCOVERY, published 2026)
